In PubChem BioAssay AID463173 (ICCB-Longwood Screening Facility, Harvard Medical School, 2010) one finds survival data, which are given here for 88 compounds.

Each structure is given as a SMILES string. In all, about 52,000 compounds went through this assay and about 1,700 (3.3%) were called active. No stated cut-off is given here; in the data, active means survival mostly below about 52% (no sharp cut-off); inactive means mostly above about 56%. Some of the results follow.

The assay concerns Wild type. Put plainly: growth inhibition of S. aureus wild type versus tarO mutant, primary screen, teichoic acid synthesis inhibitors, RN4220, OD600 (AID 463173). As to conditions: S. aureus RN4220 wild type/DeltatarO growth, OD600, 18 h, stronger effect = lower value, screened at 18.75 µg/mL (by protocol).
For `CCN(CC)CCNC(=O)c1ccc2c(=O)n3nc(Nc4ccccc4OC)sc3nc2c1`, the survival is inactive: 146%.
As for `O=S1(=O)c2ccccc2N(Cc2cccc(Cl)c2)c2ccccc21`, the figure is active: -2%.
Then `COc1cccc(CNC(=O)C2CCN(c3nnc(-n4c(C)ccc4C)s3)CC2)c1OC`, with inactive: 127%.
As for `CC(C)CCNC(=O)CN1C(=O)CSc2ccc(S(=O)(=O)N3CCCCC3)cc21`, the survival was inactive: 66%.
On to `Cc1c(C(=O)N2CCN(c3ccccc3)CC2)sc2nc3n(c(=O)c12)CCC3`, for which the survival is inactive: 97%.
On to `CCc1ccc(S(=O)(=O)c2nnn3c2nc(NC(C)C)c2sccc23)cc1`, for which the survival is inactive: 84%.
As for `COc1ccc(CCNC(=O)c2ccc3c(c2)ncn3-c2ccc(C)cc2C)cc1OC`, the figure is inactive: 121%.
As for `CC(C)CC(c1nnnn1C1CCCC1)N1CCC(C(N)=O)CC1` (stereo not drawn), the figure is inactive: 104%; as for `CCOC(=O)c1c(-c2ccc(C)cc2)csc1NC(=O)c1nc(SC(C)C)ncc1Cl`, inactive: 85%; as for `CCc1ccccc1NC(=O)C1CCCN(C(=O)c2cnn(-c3ccccc3)c2-n2cccc2)C1` (stereo not drawn), inactive: 71%.
Then `Cc1ccc(NC(=O)c2ccc(-n3c(C)nnc3C)cc2)cc1F`, with inactive: 131%; and `CCC(C(=O)NCCc1ccccc1)n1nc(C)n2c(cc3sccc32)c1=O` (stereo not drawn), with inactive: 78%; and `COc1ccc(S(=O)(=O)N2CCN(Cc3nc4ccc(C)cc4o3)CC2)cc1Cl`, with inactive: 127%.
As for `CCCc1nc(SCc2cc(=O)c3ccc(C)c(C)c3[nH]2)n[nH]1`, the survival is inactive: 136%.
As for `CCc1cc2c(cc3c(=O)n(CC(=O)NC4CCC(C)CC4)ncn32)s1` (stereo not drawn), the figure is inactive: 82%; as for `CCOc1ccccc1NC(=O)c1c(NC(=O)c2cccc(C)c2)sc2c1CCC2`, inactive: 74%.
Consider `COc1cc(OC)c(NS(=O)(=O)c2ccc3c(c2)CCCN3C(C)=O)cc1Cl`, for which the survival is inactive: 77%.
As for `CCOc1ccc(N2CC(NC(=O)c3ccc(S(=O)(=O)N4CCCCC4)cc3)CC2=O)cc1` (stereo not drawn), the figure is inactive: 71%; as for `Cc1ccc(NC(=O)CSc2nc3ccccc3nc2N2CCOCC2)cc1`, inactive: 59%; as for `COc1cc2nc(NCc3ccc(C)cc3)n3nc(-c4ccccc4)nc3c2cc1OC`, inactive: 77%.
Consider `CC1CCc2c(sc(NC(=O)C3c4ccccc4Oc4ccccc43)c2C(=O)OC(C)C)C1` (stereo not drawn), for which the survival is inactive: 61%.
As for `CCOC(=O)c1scc(-c2ccccc2)c1S(=O)(=O)Nc1cc(Cl)c(OC)cc1OC`, the figure is inactive: 79%; as for `COc1ccc(Nc2nc(N)c3cc(OC)c(OC)cc3n2)cc1`, inactive: 86%.
As for `O=C(Cc1ccccc1)NCCc1csc2nc(-c3ccc(Cl)cc3)nn12`, the figure is inactive: 74%; as for `NS(=O)(=O)c1ccc(NC(=S)NC(=O)c2cccnc2)cc1`, inactive: 107%.
As for `COc1cccc(CNC(=O)c2nn(-c3ccc(C)cc3)c(=O)c3c2c2ccccc2n3C)c1`, the figure is inactive: 137%; as for `COC(=O)c1ccc(CSc2nc3c([nH]c4ccccc43)c(=O)n2-c2ccc(OC)cc2)o1`, inactive: 82%; as for `CCOC(=O)c1oc2ccc(S(=O)(=O)n3nc(-c4ccc(Br)cc4)cc3N)cc2c1C`, inactive: 81%.
As for `COc1ccc(CNC(=O)c2c3c(nc4ccccc24)C(=O)N(C2CCCCC2)C3)cc1`, the survival is inactive: 88%.
Then `Cc1ccc(-n2nc(C)c3c(C(=O)NCc4ccccc4)cc(C4CC4)nc32)cc1`, with inactive: 82%; and `COc1ccccc1CNS(=O)(=O)c1ccc2c(c1)NC(=O)CC(=O)N2`, with inactive: 85%; and `COc1ccccc1Nc1nn2c(=O)c3ccc(C(=O)N4CCCC(C)C4)cc3nc2s1` (stereo not drawn), with inactive: 68%.
Then `COc1ccc(C2CC(=O)N(Cc3cccc(F)c3)c3ccccc3S2)cc1` (stereo not drawn), with active: 9%; and `Cc1ccc(S(=O)(=O)NCc2nc(-c3cccc(C)c3)no2)cc1`, with inactive: 106%; and `CCOC(=O)c1sc(NC(=O)C2c3ccccc3Oc3ccccc32)c(C(=O)OCC)c1C`, with inactive: 121%.
On to `CCn1cc(C(=O)NCc2ccccc2Cl)c(=O)c2cc(S(=O)(=O)N3CCc4ccccc4C3)ccc21`, for which the survival is inactive: 81%.
Consider `CCCC(=O)Nc1cc(C)c(NC(=O)C23CC4CC(CC(C4)C2)C3)cn1`, for which the survival is inactive: 90%.
On to `COc1ccccc1CNC(=O)CCCn1c(=O)c2ccccc2n(CC(=O)Nc2c(C)cc(C)cc2C)c1=O`, for which the survival is inactive: 150%.
As for `COCCCNC(=O)c1ccc2c(c1)N(Cc1ccccc1)C(=O)c1ccccc1S2`, the figure is inactive: 75%; as for `O=C(CSc1nc(=O)n(CCN2CCOCC2)c2c1CCC2)Nc1ccccc1`, inactive: 83%.
As for `COc1ccc(C(=O)Nc2nnc(S(=O)(=O)N(CC(C)C)c3ccc(C)cc3)s2)cc1OC`, the figure is inactive: 69%; as for `CNC(=S)NC1CC2CCCC(C1)N2Cc1ccco1` (stereo not drawn), inactive: 108%.
Then `O=C(Nc1ccc(S(=O)(=O)Nc2ncccn2)cc1)c1ccccc1Cl`, with inactive: 77%; and `Cc1ccc2c(c1)N(C(=O)CCC(=O)NCc1ccccc1Cl)CC(C)O2` (stereo not drawn), with inactive: 88%; and `O=C1S/C(=C/c2ccc3c(c2)OCO3)C(=O)N1CN1CCCCC1`, with inactive: 135%.
Consider `O=C(Nc1cc(C(F)(F)F)ccc1Cl)c1cc(-c2ccc3c(c2)OCCO3)on1`, for which the survival is inactive: 107%.
As for `COC(=O)c1cccnc1-n1c(=O)c2cccnc2n(CC(=O)Nc2ccc(C)cc2C)c1=O`, the figure is inactive: 71%.
Turning to `CC(=O)c1ccc(NC(=O)COc2ccccc2-c2nc(-c3cccc(C)c3)no2)cc1`, the survival is inactive: 86%.
Then `CC(NC(=O)Cn1c(=O)oc2cc(S(=O)(=O)NCc3ccccc3)ccc21)c1ccccc1` (stereo not drawn), with inactive: 91%; and `Cc1ccccc1Nc1nc(-c2cccc(Cl)c2)c2c(n1)-c1ccccc1OC2`, with inactive: 86%.
Then `COc1ccc(NC(=O)CSc2nnc(NC(=O)Nc3ccccc3)s2)cc1OC`, with inactive: 75%.
As for `COc1ccc(-c2nn3c(-c4ccccc4C)nnc3c3ccccc23)cc1`, the figure is active: -3%; as for `CN(C(=O)Cn1cc(S(=O)(=O)Cc2ccccc2Cl)c2ccccc21)c1ccccc1`, inactive: 146%.
For `CCOCCCNc1ncnc2onc(C)c12`, the survival is inactive: 127%.
As for `Cc1ccc(Cl)cc1N1CCN(S(=O)(=O)c2ccc3c(c2)CC(C)N3C(=O)C2CCC2)CC1` (stereo not drawn), the figure is inactive: 136%; as for `Cc1cccc(NC(=O)Nc2nnc(N(C)Cc3ccccc3)s2)c1`, inactive: 106%.
As to `CC(=O)c1ccc(NC(=O)c2sc(-n3nc(C)c(Cc4ccccc4)c3C)nc2C)cc1`, the survival is inactive: 91%.
Then `CNC(=O)C1CC(=O)N(Cc2ccc(F)cc2)C(=Nc2ccc(F)cc2)S1` (stereo not drawn), with inactive: 111%.
As for `Cn1c(=O)c2c(ncn2CC(=O)Nc2cccc(Cl)c2Cl)n(C)c1=O`, the figure is inactive: 84%; as for `CCOC(=O)c1cnc(SCC)[nH]c1=O`, inactive: 98%; as for `COc1cccc(Cn2c(CNC(=O)c3cc([N+](=O)[O-])ccc3Cl)nc3cccnc32)c1`, inactive: 128%.
Take `Cc1ccccc1C(=O)NC1(C(F)(F)F)C(=O)Nc2c1c(=O)[nH]c(=O)n2-c1ccc(F)cc1` (stereo not drawn): the survival is inactive: 134%.
As for `CCN(Cc1ccccc1)Cc1c(O)ccc2c(=O)c(-c3ccc(Cl)cc3Cl)coc12`, the figure is inactive: 87%; as for `Cc1noc(/C=C/c2cccs2)c1S(=O)(=O)N1CCC(C(=O)NCc2ccccc2Cl)CC1`, inactive: 89%.
Turning to `CN(C)/C=C(\C#N)c1nc2ccccc2[nH]1`, the survival was inactive: 103%.
With `CCCCNC(=O)CCCn1c(=O)c2ccccc2n(CC(=O)Nc2ccccc2OCC)c1=O`, the survival was inactive: 97%.
On to `CCOc1ccccc1NC(=O)c1ccc(F)c(S(=O)(=O)NCc2ccc3c(c2)OCO3)c1`, for which the survival was inactive: 63%.
Then `COc1cc(/C=C(\C#N)c2nc3ccccc3[nH]2)ccc1OCc1cccc(C(F)(F)F)c1`, with inactive: 66%; and `CCCc1cnc2c(c1SCC(=O)Nc1ccc(C)c(Cl)c1)c(=O)n(C)c(=O)n2C`, with inactive: 73%; and `CCOC(=O)c1oc2c(c1C)/C(=N/OC(=O)c1ccccc1Cl)CCC2`, with inactive: 92%.
As to `CCOc1ccccc1NC(=O)N1CCc2c(sc(C)c2CC)C1c1ccccc1` (stereo not drawn), the survival was inactive: 90%.
Then `COc1ccc(CNc2ncnc3onc(-c4ccc(F)cc4)c23)cc1`, with inactive: 80%.
`COCC(=O)N(Cc1cc2cc3c(cc2nc1Cl)OCO3)CC1CCCO1` (stereo not drawn): the survival was inactive: 104%.
With `O=C(CSc1oc(-c2ccccc2)nc1S(=O)(=O)c1ccc(Cl)cc1)c1ccccc1`, the survival is inactive: 61%.
As for `Cc1ccc2c(=O)cc(C(=O)Nc3ccc(S(=O)(=O)Nc4onc(C)c4C)cc3)oc2c1C`, the figure is inactive: 87%.
As for `COC(=O)C1C(=O)NC(S)=C(C#N)C1c1ccccc1Cl` (stereo not drawn), the figure is inactive: 101%.
For the compound `Cc1ccc(-n2cc(C(=O)Oc3ccc(F)cc3)c3ccccc3c2=O)cc1`, the survival was inactive: 71%.
Then `O=C(CC1C(=O)N(c2ccc(F)cc2)C(=O)N1Cc1ccc2c(c1)OCO2)Nc1ccc(Cl)cc1` (stereo not drawn), with inactive: 59%; and `Cc1cc(C)nc(-n2nc(C)c3c2N(Cc2ccccc2)C(=O)CC3c2ccc(Cl)cc2)n1` (stereo not drawn), with inactive: 81%; and `CCOC(=O)Cc1c(C)nc2cc(C)nn2c1C`, with inactive: 106%.
As for `C=CCNC(=O)Cn1c(-c2ccc(F)cc2)nc2ccccc21`, the figure is inactive: 97%.
Then `Cc1c(Cl)cccc1NS(=O)(=O)c1ccc(-c2cnc(C3CC3)o2)cc1`, with inactive: 135%; and `O=C(O)C1CCN(S(=O)(=O)c2cccc3nsnc23)CC1`, with inactive: 102%; and `Cc1oc(C(=O)O)cc1CN1CCCC1`, with inactive: 102%.
Take `CCN(C(=O)Cn1c(=O)n(-c2ccccc2)c(=O)c2ccc(C(=O)NCc3ccc4c(c3)OCO4)cc21)c1cccc(C)c1`: the survival was inactive: 82%.
Then `O=C(CCn1c(=O)c2cccn2c2cccnc21)Nc1ccccc1C(F)(F)F`, with inactive: 86%; and `CCC(=O)N1c2ccccc2CC1C(=O)NCc1cc(OC)ccc1OC` (stereo not drawn), with inactive: 76%.
Then `Cc1cc(C)cc(OCC(=O)Nc2c(C(=O)c3ccccc3)oc3ccccc23)c1`, with inactive: 78%.
